Experimental data as given in the supplement of paper PMC7826260.
The list shows a part of the results. One pool of 16,384 single-stranded DNAs met each Rep nickase domain in vitro (1 h at 37 °C, 3 µM enzyme); the outer parts of the 90-letter strands are left off. A value is the log2 ratio of uncut reads to the pool without enzyme; more negative means more cut, near 0 not cut, and no call is made. Counts are relative to all reads, so uncut sequences can rise above 0 when many others are cut.

How the values were obtained:
Test in all cases: uncleaved DNA left, log2 of reads against the no-enzyme library (log2 ratio); higher = less cleavage (more negative = more Rep cleavage of the k-mer); sequences stand for … in CTCGTCCG…ACCGGAGA
[1] = tested on: T1, Rep nickase domain of Muscovy duck circovirus
T1 sequence (Rep 1-111, printed without the tag): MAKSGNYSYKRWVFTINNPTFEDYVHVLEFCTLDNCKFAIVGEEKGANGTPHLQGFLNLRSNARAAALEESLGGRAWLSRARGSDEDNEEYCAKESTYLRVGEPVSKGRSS
Procedure: (§1)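 A pool of 90-nt single-stranded DNAs with seven random bases just before the constant AC of the nick site (name = the seven bases) was cut by 3 µM recombinant His6-SUMO-tagged Rep nickase domain (300 nM DNA, 50 mM HEPES pH 8.0, 50 mM NaCl, 1 mM MnCl2, 1 h, 37 °C, three replicates). Uncut DNA was amplified and sequenced.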

[2] = tested on: T2, Rep nickase domain of banana bunchy top virus
T2 sequence (Rep 1-94, printed without the tag): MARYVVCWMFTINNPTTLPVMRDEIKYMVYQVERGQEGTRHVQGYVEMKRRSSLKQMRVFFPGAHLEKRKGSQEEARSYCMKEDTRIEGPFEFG
Procedure: as §1

[3] = tested on: T3, Rep nickase domain of cabbage leaf curl virus
T3 sequence (Rep 1-116, printed without the tag): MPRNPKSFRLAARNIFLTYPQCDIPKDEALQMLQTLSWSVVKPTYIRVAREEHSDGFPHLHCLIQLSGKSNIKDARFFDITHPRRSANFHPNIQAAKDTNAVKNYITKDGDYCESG
Procedure: as §1

[4] = tested on: T4, Rep nickase domain of chickpea chlorotic dwarf virus
T4 sequence (Rep 1-124, printed without the tag): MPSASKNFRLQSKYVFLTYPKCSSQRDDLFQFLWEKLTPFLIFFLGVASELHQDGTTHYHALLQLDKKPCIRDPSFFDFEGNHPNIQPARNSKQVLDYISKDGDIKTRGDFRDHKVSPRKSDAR
Procedure: as §1

[5] = tested on: T5, Rep nickase domain of faba bean necrotic yellows virus
T5 sequence (Rep 1-98, printed without the tag): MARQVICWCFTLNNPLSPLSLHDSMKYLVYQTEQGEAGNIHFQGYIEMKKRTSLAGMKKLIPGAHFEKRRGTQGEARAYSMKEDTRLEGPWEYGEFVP
Procedure: as §1

[6] = tested on: T6, Rep nickase domain of maize striate mosaic virus
T6 sequence (Rep 1-117, printed without the tag): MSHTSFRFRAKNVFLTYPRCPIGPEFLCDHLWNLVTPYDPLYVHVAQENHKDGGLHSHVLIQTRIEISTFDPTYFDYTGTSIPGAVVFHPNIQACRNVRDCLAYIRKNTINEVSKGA
Procedure: as §1

[7] = tested on: T7, Rep nickase domain of porcine circovirus 2
T7 sequence (Rep 2-116, printed without the tag): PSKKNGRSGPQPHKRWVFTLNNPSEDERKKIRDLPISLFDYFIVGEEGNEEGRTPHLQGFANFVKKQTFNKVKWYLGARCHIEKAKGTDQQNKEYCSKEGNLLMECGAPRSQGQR
Procedure: as §1

[8] = tested on: T8, Rep nickase domain of tomato yellow leaf curl virus
T8 sequence (Rep 1-136, printed without the tag): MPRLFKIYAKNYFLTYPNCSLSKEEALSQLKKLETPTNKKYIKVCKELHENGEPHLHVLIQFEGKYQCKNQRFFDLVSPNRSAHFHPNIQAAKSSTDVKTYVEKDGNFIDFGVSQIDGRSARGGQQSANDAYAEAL
Procedure: as §1

[9] = tested on: T9, Rep nickase domain of wheat dwarf virus
T9 sequence (Rep 1-137, printed without the tag): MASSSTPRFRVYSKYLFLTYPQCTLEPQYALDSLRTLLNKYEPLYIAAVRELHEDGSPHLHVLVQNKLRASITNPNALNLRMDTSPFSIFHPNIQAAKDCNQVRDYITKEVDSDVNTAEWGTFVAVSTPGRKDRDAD
Procedure: as §1

Sequence	uncleaved DNA left (log2) [1]	uncleaved DNA left (log2) [2]	uncleaved DNA left (log2) [3]	uncleaved DNA left (log2) [4]	uncleaved DNA left (log2) [5]	uncleaved DNA left (log2) [6]	uncleaved DNA left (log2) [7]	uncleaved DNA left (log2) [8]	uncleaved DNA left (log2) [9]
GGTACCC	0.039	0.0533	0.49	1.04	0.0312	1.71	0.0376	0.136	0.152
TGTCAAA	-0.0804	-0.0554	0.197	0.499	-0.121	0.339	-0.0803	-0.0207	0.096
ATCTGAG	0.11	0.00937	-0.61	-0.104	0.184	-0.91	0.228	0.0571	0.0627
TTTCGAG	-0.0193	0.121	0.53	0.638	0.106	0.396	0.209	0.134	0.183
TTAGATG	0.0792	0.00572	0.165	0.533	-0.0337	0.592	0.213	-0.0138	0.00278
GTCCAAG	0.0582	0.242	0.268	0.612	-0.00423	0.63	0.227	0.129	0.124
TCTATAG	-0.0183	-0.0815	-0.615	-0.888	0.0479	-1.34	0.168	0.0214	-0.161
TCAAGGA	0.111	0.134	0.106	0.522	0.0651	-0.0816	0.258	0.0478	0.0906
CGCTCGT	-0.0492	0.011	0.803	1.7	-0.0639	0.973	-0.163	-0.00517	-0.0834
ATAAAAA	-0.11	-0.0611	-0.0847	-0.219	-0.0497	-0.724	0.0862	-0.051	0.0374
CTTTTGT	-0.376	-0.118	-0.383	-0.958	-0.0813	-1.04	-0.514	0.0396	-0.0899
TTAATCC	0.0288	-0.00716	0.411	0.135	0.0015	-0.103	0.061	0.0136	0.0692
GCAGAAC	0.0372	-0.0695	0.114	0.271	-0.084	-0.205	0.0684	-0.101	-0.057
ATGTGCA	0.0951	0.0272	-0.478	-0.961	-0.0152	-1.19	-0.218	0.139	0.031
TAATAGA	-0.106	-0.0299	-2.41	-2.31	0.126	-1.29	-0.11	0.135	-0.642
ATCATAT	-0.0678	-0.158	-0.0262	-0.925	-0.0394	-0.855	0.0225	-0.105	-0.00542
AGTCGAC	-0.0294	0.0133	0.108	0.65	0.212	1.29	0.258	0.106	0.154
CTTGTGG	0.0633	0.104	0.311	1.04	-0.026	0.652	0.101	0.0956	0.0906
GTCTACT	-0.931	-0.0274	0.226	0.0517	0.0496	1.64	-2.57	0.0732	0.0147
AAAGCTT	-0.138	-0.0795	-0.329	-1.04	-0.108	1.34	-0.286	-0.204	-0.124

Sequence	uncleaved DNA left (log2) [1]	uncleaved DNA left (log2) [2]	uncleaved DNA left (log2) [3]	uncleaved DNA left (log2) [4]	uncleaved DNA left (log2) [5]	uncleaved DNA left (log2) [6]	uncleaved DNA left (log2) [7]	uncleaved DNA left (log2) [8]	uncleaved DNA left (log2) [9]
GTGCCGC	-0.0103	0.0642	0.228	0.574	-0.00899	0.914	0.147	0.0362	0.103
CGGCCCA	-0.128	-0.0499	-0.0738	-0.153	-0.151	0.22	-0.188	-0.0452	-0.0257
GTTGTAG	0.131	0.174	0.0429	0.281	0.0293	-0.0413	0.152	0.0979	0.0627
AGGATAT	0.201	0.23	0.875	2.02	0.107	2.13	0.367	0.152	0.313
GCTACGC	-0.0254	0.0167	-0.022	-0.0663	-0.0696	-0.379	0.0933	0.0533	-0.0929
TCCCCCG	-0.209	-0.116	-0.826	-0.481	-0.193	-0.991	-0.246	-0.152	-0.155
GCGGGAG	0.165	0.278	0.0189	0.362	0.152	-0.102	0.255	0.141	-0.00429
CTTCACC	-0.118	-0.135	-0.0486	-0.717	-0.0709	-0.557	-0.285	-0.0657	-0.125
CATATGC	-0.0312	-0.0411	-0.743	-0.772	-0.0238	-1.47	0.0583	0.00502	-0.175
GTTGTTA	-0.251	-0.204	0.197	0.684	-0.179	1.53	-0.143	-0.1	-0.0572
TTATGAA	0.0373	0.0285	0.119	-0.418	0.0765	-0.31	-0.222	-0.0129	-0.0164
ATAATTG	0.0954	0.0982	-0.531	-0.52	0.0713	-1.27	0.082	-0.0243	-0.0658
ACACACA	-0.181	-0.0455	-0.302	-1.45	-0.0567	-0.647	-0.0272	-0.0984	-0.121
CTGGGCG	-0.148	-0.125	-0.837	0.154	-0.034	-0.704	0.122	-0.0151	-0.2
CGACGCC	0.0771	0.0189	0.0616	0.667	-0.0664	1.49	0.0657	-0.0379	0.114
TCGTAGA	0.0579	0.00944	0.186	0.181	0.102	-0.249	0.0836	0.00758	0.0575
TCTGTGT	0.0793	-0.144	-0.259	-0.749	0.0839	-1.07	0.0631	-0.0842	-0.201
GGGCGCC	0.134	0.00166	0.761	1.65	0.101	1.97	0.223	-0.0292	0.0582
TGCTGAC	-0.0107	0.0241	0.0373	0.455	0.102	0.0062	0.0279	-0.187	-0.0156
GGTGTCA	0.101	0.0562	0.672	1.53	0.0189	2.09	0.201	0.18	0.124

Sequence	uncleaved DNA left (log2) [1]	uncleaved DNA left (log2) [2]	uncleaved DNA left (log2) [3]	uncleaved DNA left (log2) [4]	uncleaved DNA left (log2) [5]	uncleaved DNA left (log2) [6]	uncleaved DNA left (log2) [7]	uncleaved DNA left (log2) [8]	uncleaved DNA left (log2) [9]
GTCACGG	0.0699	0.0861	0.653	1.53	0.0643	2.21	0.154	0.0727	0.124
CCCGAAA	0.032	0.0701	0.115	0.136	-0.172	-0.426	-0.0529	-0.0594	-0.018
CATCTAG	0.0464	0.113	-0.625	-0.3	0.0296	-1.14	0.206	0.0941	-0.0247
TGGTAGG	0.0849	0.00837	0.327	0.889	0.0369	0.936	0.064	0.0664	0.045
TCTCCTG	-0.0969	-0.0794	-0.156	-0.209	-0.0839	-0.185	0.0203	0.0354	-0.0771
GATCTCG	0.0952	0.0527	-0.75	-0.481	0.0244	-0.958	0.128	-0.00156	0.0115
CCGAGGT	-0.0732	-0.0095	0.322	0.763	-0.0123	1.12	0.0751	-0.151	0.0276
GATTTGC	-0.0406	-0.0961	-0.715	-0.372	0.0156	-1.01	-0.0851	-0.0226	-0.206
CAGCGTA	-0.045	-0.147	-0.48	-1.14	-0.0645	-0.918	-0.204	0.0728	-0.114
CCAGACA	-0.149	-0.122	0.00493	-0.953	-0.0552	-0.0717	-0.0572	-0.223	-0.0789
GGACTTC	0.0729	0.137	0.931	1.89	0.141	2.28	0.351	0.171	0.362
TGAAAGA	0.208	0.227	0.219	0.0675	0.158	-0.545	0.169	0.0658	0.215
ACCCCGT	0.00636	-0.0288	-0.505	-0.816	-0.0897	-1.09	-0.0714	-0.16	-0.189
GCTAGAT	-0.00834	-0.00997	0.214	0.663	-0.0447	0.702	0.00741	-0.0821	0.0548
GATGTCT	0.0232	-0.164	0.111	-1.03	0.0268	0.412	-0.226	0.0857	0.0181
CCGCAAC	0.181	0.147	0.11	-1.07	0.0903	-0.668	0.0411	-0.0166	0.058
TGCTTGG	-0.0619	-0.165	-0.283	-0.291	-0.0812	-0.752	-0.102	-0.217	-0.359
AGCACTG	-0.025	0.189	0.0173	0.599	0.146	1.72	0.138	0.0952	0.177
GTGGCGA	0.00682	-0.0387	-0.148	0.193	-0.0833	-0.0508	0.0141	-0.0467	-0.0288
CTTCGAC	-0.0162	-0.0779	-0.0204	-0.383	-0.111	-0.751	0.0304	-0.0588	-0.0513
